Reference: paper PMC4336329 (PLoS ONE, 2015)
Hit rate of the full screen: of about 310,000 compounds, about 14,000 (4.5%) showed an effect of 50% or more. The effect is printed as a negative number. This is one part of the list.

target: human ether-à-go-go-related gene (hERG) potassium channel (human, UniProt Q12809); test: primary screen, population patch clamp on CHO cells stably expressing hERG
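Note: peak tail current of the secondary pulse compared with the same well before compound.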

Chain of human ether-à-go-go-related gene (hERG) potassium channel (Q12809 whole entry, looked up): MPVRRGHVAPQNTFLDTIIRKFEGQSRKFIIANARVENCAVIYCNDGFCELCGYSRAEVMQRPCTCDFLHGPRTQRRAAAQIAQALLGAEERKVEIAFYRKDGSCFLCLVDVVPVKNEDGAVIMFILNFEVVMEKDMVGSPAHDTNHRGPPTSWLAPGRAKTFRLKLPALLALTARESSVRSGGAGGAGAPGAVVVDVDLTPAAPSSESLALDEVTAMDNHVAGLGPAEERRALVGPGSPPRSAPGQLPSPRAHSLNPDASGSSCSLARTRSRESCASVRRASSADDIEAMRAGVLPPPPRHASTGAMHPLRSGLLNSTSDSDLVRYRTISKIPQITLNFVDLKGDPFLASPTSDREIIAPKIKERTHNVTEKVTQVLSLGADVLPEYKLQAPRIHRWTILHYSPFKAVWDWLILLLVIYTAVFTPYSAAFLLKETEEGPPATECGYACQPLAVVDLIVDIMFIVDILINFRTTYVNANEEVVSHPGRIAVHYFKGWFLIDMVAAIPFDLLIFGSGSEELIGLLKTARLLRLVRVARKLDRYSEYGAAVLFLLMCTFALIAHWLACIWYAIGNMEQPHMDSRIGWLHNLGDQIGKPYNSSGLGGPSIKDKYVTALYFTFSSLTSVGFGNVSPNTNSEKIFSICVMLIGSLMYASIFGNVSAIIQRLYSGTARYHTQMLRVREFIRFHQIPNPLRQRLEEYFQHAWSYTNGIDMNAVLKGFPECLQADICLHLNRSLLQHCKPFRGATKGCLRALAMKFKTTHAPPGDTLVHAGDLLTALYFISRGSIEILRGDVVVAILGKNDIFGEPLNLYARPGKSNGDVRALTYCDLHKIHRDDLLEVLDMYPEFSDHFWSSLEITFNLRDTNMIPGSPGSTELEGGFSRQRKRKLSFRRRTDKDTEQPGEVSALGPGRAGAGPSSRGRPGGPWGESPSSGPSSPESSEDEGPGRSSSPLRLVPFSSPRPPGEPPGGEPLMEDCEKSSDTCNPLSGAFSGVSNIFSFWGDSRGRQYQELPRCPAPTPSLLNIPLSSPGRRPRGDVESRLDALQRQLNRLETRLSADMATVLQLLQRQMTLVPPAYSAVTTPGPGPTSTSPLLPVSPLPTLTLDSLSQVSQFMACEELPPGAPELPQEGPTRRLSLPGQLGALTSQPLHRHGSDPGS

Question: With CCC(C)(C)NC(=O)C(c1ccc(OC)cc1)N(C(=O)CCC(=O)Nc1cc(C)on1)c1ccc2c(c1)OCO2 (centres unmarked) as the compound, how does the “hERG current change (%, negative = inhibition) at 10uM” value read?
Answer: Its value is -4.27%.

Question: How did the “hERG current change (%, negative = inhibition) at 10uM” value turn out when COc1ccc2c(c1)C(C)=CC(C)(C)N2C(=O)Nc1ccccc1 was run?
Answer: Its value is -14.9%.

Question: CCCCc1nnc(NC(=O)c2oc3ccccc3c2C)s1 was tested. Which “hERG current change (%, negative = inhibition) at 10uM” value did it give?
Answer: Its value is 1.56%.

Question: With Cc1ccc(-c2nnc3cccc(Cl)n23)cc1 as the compound, how does the “hERG current change (%, negative = inhibition) at 10uM” value read?
Answer: The value was 2.55%.

Question: With Cc1cc(C)c(OCC(=O)N2CCN(c3ncc(C(F)(F)F)cc3Cl)CC2)c(C)c1 as the compound, how does the “hERG current change (%, negative = inhibition) at 10uM” value read?
Answer: The value was -16.1%.

Question: For COc1ccc(/C=N/NC(=O)CCn2cnc(-c3ccccc3)c2-c2ccccc2)cc1OC, which “hERG current change (%, negative = inhibition) at 10uM” value is on record?
Answer: The value was -9.58%.

Question: With COc1ccc2nc(N3CCN(C(=O)C4COc5ccccc5O4)CC3)sc2c1 (centres unmarked) as the compound, how does the “hERG current change (%, negative = inhibition) at 10uM” value read?
Answer: Its value is -61.2%.

Question: Which “hERG current change (%, negative = inhibition) at 10uM” value does the source give for CCOC(=O)CNC(=O)CCNS(=O)(=O)c1ccc2c(c1)c(=O)n(C)c(=O)n2C here?
Answer: The value was 4.99%.

Question: With CCCNC(=O)c1cc(-c2ccco2)on1 as the compound, how does the “hERG current change (%, negative = inhibition) at 10uM” value read?
Answer: The value was 14.4%.

Question: CC(OC(=O)c1ccccc1NS(=O)(=O)c1cccc(C(F)(F)F)c1)C(=O)N(C)Cc1ccccc1 (centres unmarked) was tested. Which “hERG current change (%, negative = inhibition) at 10uM” value did it give?
Answer: Its value is -0.956%.

Question: For O=C1Nc2cc3c(cc2Sc2ccccc21)OCCO3, which “hERG current change (%, negative = inhibition) at 10uM” value is on record?
Answer: The value was -8.31%.

Question: CCc1noc(C)c1C(=O)N1CCN(S(=O)(=O)c2cccs2)CC1 was tested. Which “hERG current change (%, negative = inhibition) at 10uM” value did it give?
Answer: The value was -23.5%.

Question: How did the “hERG current change (%, negative = inhibition) at 10uM” value turn out when CCn1nc(C)cc1C(=O)N1CCCC(C(=O)c2ccc3ccccc3c2)C1 (centres unmarked) was run?
Answer: The value was -21.9%.

Question: Which “hERG current change (%, negative = inhibition) at 10uM” value does the source give for Cc1nn(-c2cc(N3CCCC3)ccc2[N+](=O)[O-])c(=O)c2ccccc12 here?
Answer: The value was 1.89%.

Question: How did the “hERG current change (%, negative = inhibition) at 10uM” value turn out when Cc1ccc(C)c(OCCC(=O)Nc2ccc3c(c2)OCO3)c1 was run?
Answer: The value was -6.41%.

Question: Cn1cccc1Cc1nnc(SCC(=O)NC2CCCCC2)n1CCc1ccccc1 was tested. Which “hERG current change (%, negative = inhibition) at 10uM” value did it give?
Answer: Its value is -28.2%.

Question: How did the “hERG current change (%, negative = inhibition) at 10uM” value turn out when COc1cc(-c2nc(S(=O)(=O)c3ccc(Cl)cc3)c(N(C)C)o2)cc(OC)c1OC was run?
Answer: The value was 8.5%.

Question: Which “hERG current change (%, negative = inhibition) at 10uM” value does the source give for COc1cc(/C=C2\SC(=O)N(CC(=O)Nc3ccccc3F)C2=O)cc(Cl)c1O here?
Answer: The value was 17.3%.

Question: Which “hERG current change (%, negative = inhibition) at 10uM” value does the source give for Cn1nc(C(=O)N2CCN(S(=O)(=O)c3ccccc3)CC2)c2ccccc2c1=O here?
Answer: The value was -23%.

Question: How did the “hERG current change (%, negative = inhibition) at 10uM” value turn out when CCOC(=O)C1=C(C)N(CCCC(=O)O)C(=O)NC1c1ccc(Cl)cc1Cl (centres unmarked) was run?
Answer: Its value is 20.7%.

Question: Which “hERG current change (%, negative = inhibition) at 10uM” value does the source give for O=C(NCc1ccc(F)cc1)C1CC(=O)N(C2CCCCC2)C1 (centres unmarked) here?
Answer: The value was -2.47%.

Question: O=C1/C(=C/c2cccnc2)SC(=NCc2ccccc2)N1Cc1ccccc1 was tested. Which “hERG current change (%, negative = inhibition) at 10uM” value did it give?
Answer: The value was 2.55%.

Question: For Nc1c(C(=O)O)ccc2c1C(=O)c1ccccc1C2=O, which “hERG current change (%, negative = inhibition) at 10uM” value is on record?
Answer: Its value is 20.5%.

Question: For Cc1ccc(CNC(=O)c2cc(-c3ccccc3)nn2Cc2cc(C)no2)cc1, which “hERG current change (%, negative = inhibition) at 10uM” value is on record?
Answer: The value was -12.3%.

Question: For Cn1c(SCC(=O)N2CCCCC2)nc2cccnc21, which “hERG current change (%, negative = inhibition) at 10uM” value is on record?
Answer: The value was 22.2%.

Question: For COc1ccc(CN2C(=O)c3c(c(C)n(C)c3C)C2C(=O)NC2CCC(C)CC2)cc1 (centres unmarked), which “hERG current change (%, negative = inhibition) at 10uM” value is on record?
Answer: Its value is -28.7%.

Question: Which “hERG current change (%, negative = inhibition) at 10uM” value does the source give for Cc1ccc(S(=O)(=O)N(CCC(=O)O)c2ccccc2)cc1 here?
Answer: Its value is -10.5%.

Question: How did the “hERG current change (%, negative = inhibition) at 10uM” value turn out when NC1=C([N+](=O)[O-])C(c2ccccc2)C2=C(CCCC2=O)O1 (centres unmarked) was run?
Answer: Its value is 35.2%.

Question: Which “hERG current change (%, negative = inhibition) at 10uM” value does the source give for O=C1CC(c2ccc(S(=O)(=O)NCc3ccncc3)cc2)CN1 (centres unmarked) here?
Answer: Its value is -12.9%.

Question: How did the “hERG current change (%, negative = inhibition) at 10uM” value turn out when COc1nc(NC(C)C)nc(N(C#N)CN2C(=O)c3ccccc3S2(=O)=O)n1 was run?
Answer: The value was -9.97%.

Question: How did the “hERG current change (%, negative = inhibition) at 10uM” value turn out when O=C(c1cccc(C(F)(F)F)c1)C1CCCN(Cc2cccn2-c2ncccn2)C1 (centres unmarked) was run?
Answer: Its value is -95.7%.

Question: How did the “hERG current change (%, negative = inhibition) at 10uM” value turn out when Cc1cccc(NC(=O)CCN2CCCC(C)C2)c1.Cl (centres unmarked) was run?
Answer: Its value is 1.45%.

Question: For CC1CN(C(=O)CCC(=O)NCc2ccccc2)c2ccccc2O1 (centres unmarked), which “hERG current change (%, negative = inhibition) at 10uM” value is on record?
Answer: Its value is 0.256%.

Question: With CCn1c(SC(C)C(=O)O)nnc1-c1cccnc1 (centres unmarked) as the compound, how does the “hERG current change (%, negative = inhibition) at 10uM” value read?
Answer: Its value is -0.674%.

Question: Which “hERG current change (%, negative = inhibition) at 10uM” value does the source give for c1ccc2nc3ccccc3nc2c1 here?
Answer: The value was 6.03%.

Question: CCN(CC)CCn1c(=S)[nH]c2cc(C(=O)N3CC=C(c4ccccc4)CC3)ccc2c1=O was tested. Which “hERG current change (%, negative = inhibition) at 10uM” value did it give?
Answer: The value was -31%.

Question: For CCCN1C(=O)/C(=C\C=C2/Sc3ccccc3N2CCO)SC1=S, which “hERG current change (%, negative = inhibition) at 10uM” value is on record?
Answer: Its value is 13.3%.

Question: For CCOC(=O)C(C(=O)OCC)C(Nc1ccccc1)c1ccccc1 (centres unmarked), which “hERG current change (%, negative = inhibition) at 10uM” value is on record?
Answer: Its value is 7.3%.

Question: Which “hERG current change (%, negative = inhibition) at 10uM” value does the source give for CC(=O)Nc1cc(-c2ccccc2)ccc1O here?
Answer: Its value is 12.6%.

Question: COc1cc(CN2CCCC(N3CCN(c4ccccc4C)CC3)C2)ccc1O (centres unmarked) was tested. Which “hERG current change (%, negative = inhibition) at 10uM” value did it give?
Answer: Its value is -27%.

Question: CCOc1cccnc1Sc1ccccc1 was tested. Which “hERG current change (%, negative = inhibition) at 10uM” value did it give?
Answer: The value was -1.39%.

Question: For COc1cc(C(=O)NCCC(=O)N2CCC3(CC2)NCCc2[nH]cnc23)cc(OC)c1OC, which “hERG current change (%, negative = inhibition) at 10uM” value is on record?
Answer: The value was 3.36%.

Question: For Cn1c(CC(=O)Nc2ccccc2F)nnc1SCC(=O)NC1CCCC1, which “hERG current change (%, negative = inhibition) at 10uM” value is on record?
Answer: Its value is 11%.

Question: CC(C)(C)c1ccc(C(=O)O/N=C(\N)c2ccccc2)cc1 was tested. Which “hERG current change (%, negative = inhibition) at 10uM” value did it give?
Answer: The value was 21.1%.

Question: Which “hERG current change (%, negative = inhibition) at 10uM” value does the source give for CCOC(=O)N1CCC(NC(=O)c2cccc3c2C(=O)N(c2ccc(OC)cc2)C3)CC1 here?
Answer: The value was -58.3%.

Question: With O=C(Cc1nc(=O)c2ccccc2s1)Nc1ccccc1 as the compound, how does the “hERG current change (%, negative = inhibition) at 10uM” value read?
Answer: The value was 18.6%.

Question: CC(=O)N(Cc1cccs1)Cc1cc2cc(C)c(C)cc2nc1Cl was tested. Which “hERG current change (%, negative = inhibition) at 10uM” value did it give?
Answer: Its value is -11.6%.

Question: How did the “hERG current change (%, negative = inhibition) at 10uM” value turn out when Cc1[nH]c2ccccc2c1C(=O)C(=O)NCc1ccco1 was run?
Answer: Its value is 23.2%.

Question: CCOCCOc1cccc(C(=O)NC(c2ccccc2)c2ccccc2)c1 was tested. Which “hERG current change (%, negative = inhibition) at 10uM” value did it give?
Answer: Its value is 17.7%.

Question: For Cc1cc(-c2ccccc2)nc(-c2ccccc2)c1C, which “hERG current change (%, negative = inhibition) at 10uM” value is on record?
Answer: Its value is 5.41%.

Question: With Cc1ccc2cc(C)c(Sc3nnnn3-c3ccccc3)nc2c1 as the compound, how does the “hERG current change (%, negative = inhibition) at 10uM” value read?
Answer: Its value is -25.6%.

Question: How did the “hERG current change (%, negative = inhibition) at 10uM” value turn out when Cc1cccc(NCc2nc(SCC(N)=O)n[nH]2)c1 was run?
Answer: The value was -6.1%.

Question: With CCC(=O)c1ccccc1OCCN1CCN(Cc2ccccc2)CC1.O=C(O)C(=O)O as the compound, how does the “hERG current change (%, negative = inhibition) at 10uM” value read?
Answer: The value was -59.1%.

Question: Which “hERG current change (%, negative = inhibition) at 10uM” value does the source give for Cc1ccc(-c2noc(CCC(=O)NCC3CCCO3)n2)cc1 (centres unmarked) here?
Answer: Its value is 2%.

Question: With O=C(NC1CCN(C(=O)NCc2ccccc2)CC1)c1ccco1 as the compound, how does the “hERG current change (%, negative = inhibition) at 10uM” value read?
Answer: Its value is 11.5%.

Question: How did the “hERG current change (%, negative = inhibition) at 10uM” value turn out when CCCCN1C(C(=O)Nc2cc(C)on2)=C(O)c2ccccc2S1(=O)=O was run?
Answer: Its value is 19.2%.
